{"source": "PubChem BioAssay AID504832", "about": "(National Center for Advancing Translational Sciences (NCATS), 2011)", "note": "In all, about 310,000 compounds went through this assay and about 18,000 (5.8%) were called active. This list was built around the results that the source calls inconclusive (neither active nor inactive); the mix of calls is not that of the screen. Calls come from the whole dose curve; as a rule, active = well fitted inhibition curve with a large enough effect; inconclusive = small, poorly fitted or top-dose-only effect, or another doubt; inactive = no such curve, though single readings can be large or run the other way. No potency is given beside an inconclusive call; the fits are too rough. Potency is the fitted concentration of half-maximal effect; tags give direction and shape of the fitted curve.", "data": [{"experiment": "Primary qHTS for delayed death inhibitors of the malarial parasite plastid, 48 hour incubation", "conditions": "P. falciparum luciferase growth in erythrocytes; series mostly up to 28.7 µM", "how_it_was_run": "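Luminescence readout; reporter = integrated firefly luciferase in P. falciparum. RBC culture at 2% hematocrit, 0.1% parasitemia final, 37 C/5% CO2; decreased signal taken as growth inhibition.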", "values": [{"molecule": "Cc1ccc(-c2noc(CCC(=O)NC3CCN(Cc4ccccc4)CC3)n2)cc1", "Potency": "inconclusive [inhibitor, single point]"}, {"molecule": "CC(=O)c1ccc(S(=O)(=O)N2CCN(C(=O)CCC3CCCC3)CC2)cc1", "Potency": "inconclusive [inhibitor, single point]"}, {"molecule": "Cc1ccc2nc(N3C(=O)C(O)=C(C(=O)c4ccco4)C3c3ccc(O)cc3)sc2c1", "note": "(centres undefined)", "Potency": "inactive"}, {"molecule": "O=C(Nc1ccccc1)ON=C1CCCC1", "Potency": "active: 8.28 µM"}, {"molecule": "COc1cc(NC(=O)[C@H]2CCCN2S(=O)(=O)c2cccc3cccnc23)cc(OC)c1OC", "Potency": "inconclusive [inhibitor, partial curve]"}, {"molecule": "c1ccc(C(c2ccccc2)N2CCN(Cc3nnnn3C3CCCCC3)CC2)cc1", "Potency": "active: 8.28 µM"}, {"molecule": "O=C1/C(=C/c2cccc(F)c2)SC(=S)N1NS(=O)(=O)c1ccccc1", "Potency": "inactive"}, {"molecule": "Cc1ccc(Oc2ccc(S(=O)(=O)N3CCOCC3)cc2C(N)=O)c(-n2nc3ccccc3n2)c1", "Potency": "inconclusive [inhibitor, partial curve]"}, {"molecule": "Oc1c(CN2CCOCC2)cc(-c2ccccc2)cc1CN1CCOCC1", "Potency": "inconclusive [inhibitor, single point]"}, {"molecule": "CCC(C)c1ccc(NC(=O)Nc2cnccn2)cc1", "note": "(centres undefined)", "Potency": "inconclusive [inhibitor, single point]"}, {"molecule": "Cc1ccc(OCC(O)Cn2c3ccccc3c3ccccc32)cc1", "note": "(centres undefined)", "Potency": "active: 9.28 µM"}, {"molecule": "COC(=O)C1(CC2CC(c3ccc(Cl)cc3)=NO2)CCN(C(=O)OC(C)(C)C)CC1", "note": "(centres undefined)", "Potency": "inconclusive [inhibitor, single point]"}, {"molecule": "COC(=O)[C@@H](NC(=O)c1cc(COc2cncc(Cl)c2)on1)c1ccccc1", "Potency": "inactive"}, {"molecule": "CN1C(=O)C(c2nnc(Nc3cccc4ccccc34)s2)C2CC1(C)Oc1ccccc12", "note": "(centres undefined)", "Potency": "inconclusive [inhibitor, single point]"}, {"molecule": "CCn1c(CC(=O)Nc2ccc(F)cc2)nnc1SCC(=O)Nc1nncs1", "Potency": "inactive"}, {"molecule": "Cc1cc2ccccn2c1C(=O)c1ccccc1F", "Potency": "inactive"}, {"molecule": "Cn1c(=NC(=O)c2ccccc2[N+](=O)[O-])sc2cc(S(C)(=O)=O)ccc21", "Potency": "inactive"}, {"molecule": "CCCn1c(NC(=O)c2ccc([N+](=O)[O-])o2)nc2ccccc21", "Potency": "inconclusive [inhibitor, single point]"}, {"molecule": "CCOc1ccc(N(C(C)C(=O)N2CCCC2)S(C)(=O)=O)cc1", "note": "(centres undefined)", "Potency": "inactive"}, {"molecule": "Cc1cc(C#N)c(C)n1-c1cc(S(=O)(=O)N2CCOCC2)ccc1N1CCCC1", "Potency": "inconclusive [inhibitor, single point]"}, {"molecule": "O=C(c1ccco1)N1CCN(S(=O)(=O)c2ccccc2)CC1", "Potency": "inconclusive [inhibitor, full curve, poor fit]"}, {"molecule": "Cc1c(C)c2c(OCC(=O)NCC(C)C)cc3c(c2oc1=O)CCC(C)(C)O3", "Potency": "active: 8.28 µM"}, {"molecule": "COc1ccc(C2c3ccc(O)cc3Oc3ncn4nc(-c5ccncc5)nc4c32)cc1OC", "note": "(centres undefined)", "Potency": "active: 1.31 µM"}, {"molecule": "O=C(Nc1ccc(N2CCOCC2)c(Cl)c1)c1ccc([N+](=O)[O-])o1", "Potency": "active: 10.4 µM"}, {"molecule": "Cc1ccccc1C(=O)Nc1ccnn1C1CCN(Cc2c(C)n(C)c3ccccc23)CC1", "Potency": "inconclusive [inhibitor, partial curve, poor fit]"}, {"molecule": "COc1nc(OC)nc(N2CCC(NC(=O)C(Cc3ccc(C(C)C)cc3)NC(C)=O)CC2)n1", "note": "(centres undefined)", "Potency": "active: 10.4 µM"}, {"molecule": "O=P(Oc1ccccc1)(Oc1ccccc1)C(Nc1ccccc1)c1ccccc1", "note": "(centres undefined)", "Potency": "inconclusive [inhibitor, single point]"}, {"molecule": "Nc1scc2c(C(=O)N/N=C/c3ccc(Cl)cc3)nn(-c3ccccc3)c(=O)c12", "Potency": "inconclusive [inhibitor, full curve, poor fit]"}, {"molecule": "CC(C)(C)c1ccc(Cn2nnc3c(=O)[nH]c(C4CCN(C(=O)c5ccco5)CC4)nc32)cc1", "Potency": "active: 6.57 µM"}, {"molecule": "COc1cc(CNCCCSc2nnnn2C)cc(Br)c1OC", "Potency": "inactive"}, {"molecule": "C=C1C[C@H]2[C@@H]3C=C(C)C4=CC(=O)CC[C@]4(C)[C@H]3CC[C@]2(C)[C@@]1(OC(C)=O)C(C)=O", "Potency": "active: 9.28 µM"}, {"molecule": "COc1ccc(N(CC(=O)NC2CCCC2)S(=O)(=O)c2ccc(NC(C)=O)cc2)cc1", "Potency": "inconclusive [inhibitor, partial curve, poor fit]"}, {"molecule": "COc1ccc(C(NC(C)=O)c2cc(Cl)c3cccnc3c2O)cc1", "note": "(centres undefined)", "Potency": "inconclusive [inhibitor, full curve, poor fit]"}, {"molecule": "COc1cccc(Nc2ccc(N3CCCCC3)cc2)c1OC", "Potency": "active: 4.65 µM"}, {"molecule": "CCCN(CCC)S(=O)(=O)c1ccc(C(=O)N2CCC(=O)c3ccccc32)cc1", "Potency": "inconclusive [inhibitor, partial curve]"}, {"molecule": "COc1ccccc1CNc1ccc(N2CCCCC2)cc1", "Potency": "inconclusive [inhibitor, full curve]"}, {"molecule": "O=C(NNC(=O)c1ccc(Cl)cc1Cl)c1cnccn1", "Potency": "inconclusive [inhibitor, single point]"}, {"molecule": "CCCCOc1ccc(C(=O)N/N=C/c2ccc(OCCN3CCCCC3)c(OC)c2)cc1", "Potency": "active: 11.7 µM"}, {"molecule": "OCCNc1ncnc2c1nnn2Cc1ccccc1", "Potency": "inactive"}, {"molecule": "CCC(=O)N/N=C(\\C)CC(=O)Nc1ccc(F)cc1", "Potency": "inactive"}, {"molecule": "Cc1ccccc1CSc1nc(C(C)(C)C)cc(=O)[nH]1", "Potency": "inactive"}, {"molecule": "CC(C)CC(=O)N1CCN(c2ccc(NC(=O)c3ccco3)cc2)CC1", "Potency": "inconclusive [inhibitor, single point]"}, {"molecule": "COc1ccc(OCC(O)Cn2c(=N)n(CCN3CCOCC3)c3ccccc32)cc1", "note": "(centres undefined)", "Potency": "inconclusive [inhibitor, partial curve]"}, {"molecule": "O=C(O)C12C[C@H]3C[C@@H](C1)CC(n1ncc(N4CCN(c5ccccc5)CC4)c(Cl)c1=O)(C3)C2", "Potency": "inconclusive [inhibitor, partial curve]"}, {"molecule": "COCc1nnc(NC(=O)c2ccc(S(=O)(=O)N3CCOCC3)cc2)o1", "Potency": "inconclusive [inhibitor, partial curve, poor fit]"}, {"molecule": "O=C(N/N=C/c1cc([N+](=O)[O-])ccc1O)c1cccc(N2CCCC2=O)c1", "Potency": "inconclusive [inhibitor, single point]"}, {"molecule": "N#C/C(=C\\c1ccc(N2CCCC2)c([N+](=O)[O-])c1)c1nc2ccccc2[nH]1", "Potency": "inconclusive [inhibitor, full curve, poor fit]"}, {"molecule": "COCCN(C(=O)Nc1ccc(OC)cc1)c1nc2ccccc2s1", "Potency": "inactive"}, {"molecule": "O=c1[nH]c(=S)[nH]c2sc3c(c12)CCCCCC3", "Potency": "inactive"}, {"molecule": "O=C(CNc1ccccc1C(=O)O)c1ccccc1", "Potency": "inactive"}, {"molecule": "Cc1ccc(C)c(C(=O)OCC(=O)Nc2cccc(S(=O)(=O)N3CCCCC3)c2)c1", "Potency": "active: 10.4 µM"}, {"molecule": "O=c1c2ccccc2nc(CNCc2ccco2)n1-c1ccc(F)cc1", "Potency": "inconclusive [inhibitor, single point]"}, {"molecule": "CC(NC(=O)Nc1ccc(F)cc1F)c1ccc2c(c1)OCO2", "note": "(centres undefined)", "Potency": "inconclusive [inhibitor, partial curve, poor fit]"}, {"molecule": "O=c1oc(Cl)c(Cl)c2ccccc12", "Potency": "inconclusive [inhibitor, partial curve, poor fit]"}, {"molecule": "Cc1ccc(N2CC(=O)Nc3c(oc4nc(-c5ccccc5)cc(C)c34)C2=O)cc1", "Potency": "inconclusive [inhibitor, single point]"}, {"molecule": "CC(C)NS(=O)(=O)c1ccc2c(c1)oc(=O)n2C", "Potency": "inactive"}, {"molecule": "CC(C)(C)OC(=O)NCCCCCNC(=O)c1[nH]cnc1C(=O)Nc1ccon1", "Potency": "inconclusive [inhibitor, single point]"}, {"molecule": "[O-]/C(=C(\\C(=S)NCCN1CCOCC1)[n+]1ccccc1)c1ccc(Cl)s1", "Potency": "inactive"}, {"molecule": "CC(C)(C)C(=O)NCc1ccc(C(=O)CSc2nnc(-c3ccncc3)n2C2CC2)s1", "Potency": "inconclusive [inhibitor, partial curve]"}, {"molecule": "O=C(Oc1c(CN2CCOCC2)cc(Cl)c2cccnc12)c1ccccc1Cl", "Potency": "inconclusive [inhibitor, partial curve]"}, {"molecule": "COC(=O)C1=C(c2c(C)noc2C)C[C@@H]2CC[C@H]1N2C(=O)NC1Cc2ccccc2C1", "Potency": "inconclusive [inhibitor, single point]"}, {"molecule": "c1ccc(N=C(c2cccs2)N2CCOCC2)cc1", "Potency": "inconclusive [inhibitor, partial curve, poor fit]"}, {"molecule": "S=c1[nH]nc(COc2ccccc2)n1/N=C/C(Cl)=C/c1ccccc1", "Potency": "inconclusive [inhibitor, single point]"}, {"molecule": "Cc1nc2ncnn2c(N2CCN(c3cccc(C(F)(F)F)c3)CC2)c1C", "Potency": "inconclusive [inhibitor, single point]"}, {"molecule": "O=C(CCn1nnc2ccccc21)Nc1nnc(Cc2ccc(F)cc2)s1", "Potency": "inactive"}, {"molecule": "O=c1c2ccccc2nc(CSc2ncnc3nc[nH]c23)n1-c1ccccc1Cl", "Potency": "inconclusive [inhibitor, single point]"}, {"molecule": "CCOC(=O)C1=C(O)/C(=C/c2cc(OC)c(O)c(OC)c2)SC1=Nc1ccc(OC)cc1", "Potency": "inconclusive [inhibitor, partial curve]"}, {"molecule": "CCOC(=O)Cc1c(C)nc2c(-c3ccc(OC)cc3)c(C)nn2c1C", "Potency": "inconclusive [inhibitor, partial curve, poor fit]"}, {"molecule": "CCOc1ccccc1NC(=O)C1CCCN(C(=O)Nc2ccccc2)C1", "note": "(centres undefined)", "Potency": "inconclusive [inhibitor, single point]"}]}]}
